One series concerns GL261. Nature of the series: cell viability relative to siNT1 (ATP content); H4 human neuroglioma and GL261 mouse glioma; higher = less toxic. The following applies: siRNA concentration 25 nM; 96 h; mouse.
The test system of a further series is H4. Described as above. The following applies: siRNA concentration 10 nM; 96 h; human.

Shown are siRNA guide strands that differ only in the seed, positions 2 to 7.
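Note: cells reverse transfected with siRNA duplexes via lipid reagent, ATP read by luminescence, triplicate wells, values scaled to mean viability with non-targeting control siNT1.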

The term cell viability denotes a read-out of living cells in per cent, often relative to untreated cells. For UUUUUUCACAUGUAAACCA, the cell viability with GL261 was found to be 58.3%; with H4, 97.3%.
Take UUUUUUGACAUGUAAACCA: the cell viability with GL261 turned out to be 69.7%; in the series on H4 it was 100%.
For UUUUUUUACAUGUAAACCA, the cell viability in the series with GL261 came to 94.4%; in the series with H4, 99.4%.
